# Data published in PubChem BioAssay (NCATS).
# This list was built around the results that the source calls inconclusive (neither active nor inactive); the mix of calls is not that of the screen. A call without a number means that no potency is given here. For some assays here: Where the call is inconclusive, the potency comes from a doubtful curve fit. For some assays here: A note “side channel” means that the fit belongs to a control or component signal, not to the main read-out. Activity calls are given as the source filed them. Unless noted, calls follow the shape of the dose curve; as a rule, active = well fitted curve in the direction sought with a large enough effect; inconclusive = small, poorly fitted or top-dose-only effect, or another doubt; inactive = no such curve, though single readings can be large; an effect the other way counts as inactive or inconclusive.
# Columns and labels:
# [1] = Cell Viability - NIH 3T3 (AID 541); conditions: NIH 3T3 cell viability, qHTS; activity change, negative = cytotoxicity: at 92.2 µM (top of the series); also: nearly all actives have a fitted effect of over 25% in size
# Procedure, shortened: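 Luminescent ATP signal (CellTiter-Glo) served as the viability read-out after NIH 3T3 cells were exposed to compounds over a concentration range for 40 hr at 37 °C. Hill-equation modelling of concentration-response data gave AC50.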
# [2] = MultiTox-Fluor Cytotoxicity Assay - LYMP1-001 - Live Cells (AID 947); also: potency is read from the fitted curve at half-maximal effect
# [3] = qHTS of pediatric cancer cell lines to identify multiple opportunities for drug repurposing: Primary screen for Rh30 cells (AID 1347107); also: nearly all actives have a fitted effect of over 75% in size
# Procedure, shortened: (§1)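 Viability after 48 h compound treatment at 37C, 500-1,000 cells/well, read as ATP luminescence with CellTiter-Glo. Primary screens used 11-point (MIPE, 0.78 nM-46 µM) or 8-point (NPC, 0.59 nM-46 µM) final concentrations; follow-up screens used 11-point dilutions.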
# [4] = qHTS of pediatric cancer cell lines to identify multiple opportunities for drug repurposing: Primary screen for DAOY cells (AID 1347090); also: nearly all actives have a fitted effect of over 55% in size
# Procedure, shortened: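 Viability measured as metabolically active cells via CellTiter-Glo luminescence following 48 hours of compound exposure, 11-point dilutions in confirmatory testing. 500-1,000 cells/well plated 5 hours before dosing; controls were DMSO and 2.3 µM bortezomib.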
# [5] = target: Cytochrome P450 2C19 (Homo sapiens) (UniProt P33261); assay: qHTS for inhibitors of CYP2C19 against the NCATS DSHEA and TCM libraries (AID 1919974);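 also: luminescence from luciferin released by CYP2C19 oxidation of a pro-luciferin substrate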; also: potency is read from the fitted curve at half-maximal effect
# Chain of UniProt P33261 (P33261 whole entry, looked up, canonical isoform): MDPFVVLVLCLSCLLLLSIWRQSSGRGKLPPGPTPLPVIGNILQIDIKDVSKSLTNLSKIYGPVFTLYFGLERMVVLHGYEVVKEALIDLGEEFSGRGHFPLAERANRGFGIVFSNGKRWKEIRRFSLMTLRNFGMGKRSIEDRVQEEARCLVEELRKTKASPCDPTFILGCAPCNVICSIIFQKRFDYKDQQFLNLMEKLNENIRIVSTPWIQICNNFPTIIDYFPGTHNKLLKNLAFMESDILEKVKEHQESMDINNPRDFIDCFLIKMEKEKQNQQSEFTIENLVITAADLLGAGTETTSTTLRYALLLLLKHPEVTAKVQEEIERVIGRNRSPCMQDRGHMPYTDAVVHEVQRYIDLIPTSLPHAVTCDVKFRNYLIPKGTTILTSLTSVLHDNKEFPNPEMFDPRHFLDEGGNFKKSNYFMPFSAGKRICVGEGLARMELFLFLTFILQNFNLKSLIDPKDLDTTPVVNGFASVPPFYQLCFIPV
# Procedure, shortened: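 Read-out is luminescence after P450-Glo detection (30 min, RT). Before that: 15 min compound–enzyme preincubation, then 30-45 min reaction with 1x NADPH regeneration solution, substrate concentration isoform-specific.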
# [6] = target: ATP-dependent DNA helicase Q1 (Homo sapiens) (UniProt P46063); assay: qHTS Validation Assay for Inhibitors of RecQ-Like Dna Helicase 1 (RECQ1) (AID 2353)
# Chain of UniProt P46063 (P46063 whole entry, looked up): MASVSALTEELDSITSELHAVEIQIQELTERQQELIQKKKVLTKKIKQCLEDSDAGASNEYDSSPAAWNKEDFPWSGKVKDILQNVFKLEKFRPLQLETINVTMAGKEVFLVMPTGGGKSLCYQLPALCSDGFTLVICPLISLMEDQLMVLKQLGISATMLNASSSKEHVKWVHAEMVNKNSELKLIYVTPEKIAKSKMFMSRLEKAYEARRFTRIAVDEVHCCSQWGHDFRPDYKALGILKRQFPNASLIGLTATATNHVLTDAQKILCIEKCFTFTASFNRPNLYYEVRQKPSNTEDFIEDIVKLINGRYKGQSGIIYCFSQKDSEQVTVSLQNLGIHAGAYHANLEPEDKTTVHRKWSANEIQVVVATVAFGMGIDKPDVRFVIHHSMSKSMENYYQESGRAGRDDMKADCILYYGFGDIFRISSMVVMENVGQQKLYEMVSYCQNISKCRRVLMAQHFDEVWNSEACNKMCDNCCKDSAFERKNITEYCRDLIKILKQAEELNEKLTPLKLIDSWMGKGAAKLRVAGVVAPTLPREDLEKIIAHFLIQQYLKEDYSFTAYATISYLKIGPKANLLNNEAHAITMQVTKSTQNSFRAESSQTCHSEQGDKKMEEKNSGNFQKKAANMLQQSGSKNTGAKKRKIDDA
# Procedure, shortened: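 50 nM RECQ1T1 preincubated 15 min with compound in Tris pH 8.0 buffer with MgCl2, DTT, Tween-20 and 2.5 ug/ml poly(dI-dC); started with 200 nM TAMRA/BHQ-2 forked duplex and 2 mM ATP. Unwinding read as fluorescence (525/598 nm), two reads 2 h apart.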
# [7] = Natriuretic polypeptide receptor (hNpr1) antagonism - Pilot counterscreen GloSensor control cell line (AID 1347045; calls by dose curve)
# Procedure, shortened: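 Luminescence was read before and 20 min after adding 50 uM SNP, which stimulates soluble guanylyl cyclase. The HEK293 cells expressing the GloSensor cGMP sensor had been preloaded with 2% reagent for 2 h and treated with compound.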
# [8] = target: N-terminal Xaa-Pro-Lys N-methyltransferase 1 (Homo sapiens) (UniProt Q9BV86); assay: qHTS Assay for Inhibitors of N-terminal methyltransferase 1 (NTMT1): LOPAC validation of the NTMT1 SAHH-coupled ThioGlo3 Assay (AID 1347143);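 also: SAH from peptide methylation measured as thiol fluorescence via SAHH coupling and ThioGlo3; nearly all actives have a fitted effect of over 70% in size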; also: potency is read from the fitted curve at half-maximal effect
# Chain of UniProt Q9BV86 (Q9BV86 whole entry, looked up): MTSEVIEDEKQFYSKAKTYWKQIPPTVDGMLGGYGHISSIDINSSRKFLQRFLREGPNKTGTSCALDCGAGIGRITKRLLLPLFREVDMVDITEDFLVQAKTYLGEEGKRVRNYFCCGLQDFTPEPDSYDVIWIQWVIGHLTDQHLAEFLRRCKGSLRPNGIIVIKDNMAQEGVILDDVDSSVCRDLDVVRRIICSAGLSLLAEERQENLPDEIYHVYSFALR
# Procedure, shortened: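 Recombinant human NTMT1 (125nM) was pre-incubated 1 min at room temperature with compounds over a concentration range, then a mix of 100uM SAM, 10uM SAHH and 15uM ThioGlo3 (concentrations in added reagent) was added. ThioGlo3 fluorescence (ex 340/em 450nm) after 30 min was normalized to the initial reading.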
# [9] = qHTS for differential inhibitors of proliferation of Plasmodium falciparum line 7G8 (AID 1815);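 also: parasite growth measured after three days of incubation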; also: potency is read from the fitted curve at half-maximal effect
# [10] = qHTS for differential inhibitors of proliferation of Plasmodium falciparum line HB3 (AID 1886); conditions: Potency: Plasmodium falciparum HB3 proliferation inhibition;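 also: parasites grown with compound for 72 h before SYBR Green readout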; also: potency is read from the fitted curve at half-maximal effect
# [11] = Nrf2 qHTS screen for inhibitors: Validation (AID 493153; active = well fitted inhibition curve with a large enough effect in the main read-out, with a control signal flat, not every such curve was filed as active; inconclusive = small, poorly fitted or top-dose-only effect, or effect the other way, or a change in a side signal; inactive = no such curve, though single readings can be large or run the other way; also: potency is read from the fitted curve at half-maximal effect;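 as to activity change, negative = inhibition: A549 cells with ARE-driven firefly luciferase reporter reporting Nrf2 activity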)
# Procedure, shortened: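 Luminescence from an ARE-firefly luciferase reporter in A549 cells gives Nrf2 inhibition; an earlier CellTiter-Fluor fluorescent read flags cytotoxicity. Cells in 5% FBS OPTI-MEM received compound dilution series for 18-24 h at 37°C.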
# [12] = Validation of Assay for Modulators of Lamin A Splicing (AID 1459; active = well fitted curve in the direction sought with a large enough effect in the signal ratio; inconclusive = small, poorly fitted or top-dose-only effect, or effect the other way, or a change in a side signal; inactive = no such curve, though single readings can be large or run the other way; the % refers to the signal ratio;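 also: cells exposed to compound for two days before reading; ratio rise marks activators and ratio drop marks inhibitors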); conditions: Lamin A splicing dual RFP/GFP fluorescence reporter; Potency: ratio unless noted; ratio change, both ways: at 9.22 µM unless noted
# Procedure, shortened: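 S3 HeLa stably expressing lamin A-EGFP splicing minigene and DsRed2, 600 cells/well in Opti-MEM with 2% FBS, treated 48 h at 37C; laser-scanning cytometry gives GFP/RFP total intensity ratio; ancitabine positive control, 0.5% DMSO vehicle.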
# [13] = qHTS Validation Assay to Find Inhibitors of Chronic Active B-Cell Receptor Signaling (AID 485345; active = well fitted curve in the direction sought with a large enough effect in the main read-out, with a control signal flat, not every such curve was filed as active; inconclusive = small, poorly fitted or top-dose-only effect, or effect the other way, or a change in a side signal; inactive = no such curve, though single readings can be large or run the other way); conditions: ABC-DLBCL cells, chronic BCR signaling reporter; activity change: CBG luciferase, at 46.1 µM (top of the series)
# Procedure, shortened: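 TMD8 ABC-DLBCL cells stably carrying doxycycline-inducible IkappaBalpha–green luciferase fusion plus unfused red luciferase; compounds 46 uM to 3 nM, 4 h at 37C with doxycycline. Corrected green/red luminescence ratio normalized to 10 uM MG-132 and basal cell wells; curves fitted.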
# FAB9 = assay: qHTS profiling for inhibitors of Plasmodium falciparum proliferation (AID 504749); also: potency is read from the fitted curve at half-maximal effect; nearly all actives have a fitted effect of over 60% in size; conditions: P. falciparum in erythrocytes, SYBR Green DNA, 72 h; series mostly up to 28.7 µM
# Procedure, shortened: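 P. falciparum-infected erythrocytes (0.3% parasitemia, 2.5% hematocrit) incubated with compound 72 h at 37 C, 5% CO2. Parasite DNA detected by SYBR Green after lysis, overnight at room temperature; normalised to 0.29 uM artemisinin and DMSO.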
# [14] = target: Cytochrome P450 3A4 (Homo sapiens) (UniProt P08684); assay: qHTS Assay for Inhibitors and Substrates of Cytochrome P450 3A4 (AID 884); conditions: recombinant CYP3A4, Luciferin-PPXE luminescence; activity change, negative = inhibition: at 57.1 µM (top of the series); also: nearly all actives have a fitted effect of over 50% in size
# Chain of UniProt P08684 (P08684 whole entry, looked up): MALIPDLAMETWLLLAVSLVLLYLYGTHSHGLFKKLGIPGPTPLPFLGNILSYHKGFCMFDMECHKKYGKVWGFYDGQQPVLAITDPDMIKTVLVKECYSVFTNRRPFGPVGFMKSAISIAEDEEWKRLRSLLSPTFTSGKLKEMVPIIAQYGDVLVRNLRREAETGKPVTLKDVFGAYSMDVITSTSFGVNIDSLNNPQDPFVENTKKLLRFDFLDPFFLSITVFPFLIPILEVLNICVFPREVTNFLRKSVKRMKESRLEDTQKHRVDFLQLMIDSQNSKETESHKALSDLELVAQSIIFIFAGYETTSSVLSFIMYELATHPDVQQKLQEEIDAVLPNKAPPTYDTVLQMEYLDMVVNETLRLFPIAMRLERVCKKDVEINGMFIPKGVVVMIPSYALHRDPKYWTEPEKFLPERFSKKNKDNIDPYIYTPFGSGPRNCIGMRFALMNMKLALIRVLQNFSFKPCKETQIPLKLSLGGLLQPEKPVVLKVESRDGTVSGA
# Procedure, shortened: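 20 nM human CYP3A4 with 25 uM Luciferin-PPXE (at KM) in 200 mM KPO4, preincubated 10 min with compound; NADPH regeneration started a 60 min RT reaction. Luciferin detected by luminescence, normalized to 57 uM ketoconazole as full inhibition.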
# [15] = qHTS for differential inhibitors of proliferation of Plasmodium falciparum line D10 (AID 1877);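 also: parasites grown with compound for 72 h before DNA staining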; also: potency is read from the fitted curve at half-maximal effect
# [16] = qHTS of pediatric cancer cell lines to identify multiple opportunities for drug repurposing: Primary screen for control Hh wild type fibroblast cells (AID 1347106);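 also: a drop in luminescence marks cytotoxicity and a rise apparent proliferation; nearly all actives have a fitted effect of over 55% in size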
# Procedure, shortened: as §1
# [17] = qHTS Assay for Identification of Small Molecule Antagonists for NFkB Signaling Pathway (AID 895; active = well fitted inhibition curve with a large enough effect in the signal ratio, with a control signal flat, not every such curve was filed as active; inconclusive = small, poorly fitted or top-dose-only effect, or effect the other way, or a change in a side signal; the % refers to the signal ratio; also: potency is read from the fitted curve at half-maximal effect); conditions: NFkB beta-lactamase reporter cells, FRET ratio 460/530, stimulated with 10 pM TNF alpha; activity change, negative = inhibition: at 38.3 µM (top of the series)
# Procedure, shortened: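 ME-180 NFkB-bla cells (beta-lactamase under NFkB response element), plated overnight, treated with compound then 10 pM TNF alpha (about EC50) for 5 hrs at 37 C. LiveBLAzer FRET read at 460/530 nm emission, 405 nm excitation.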
# [18] = Cell Viability - Jurkat (AID 426;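 active = dose-dependent loss of cell ATP signal giving a full or clear fitted curve, ranked by lower potency value; inconclusive = weak partial curve or response only at the top dose; inactive = no loss of viability signal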; also: potency is read from the fitted curve at half-maximal effect); conditions: qHTS
# Procedure, shortened: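 qHTS, 1536-well; Jurkat E6-1, 5000 cells/well, complete medium; cpd 40 hr, 37 °C; CellTiter-Glo 20 min RT; luminescence. AC50 by Hill fit.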
# [19] = qHTS Assay for Identification of Small Molecule Agonists for Hypoxia Response Element Signaling Pathway (AID 914; active = well fitted activation curve with a large enough effect in the signal ratio, with a control signal flat, not every such curve was filed as active; inconclusive = small, poorly fitted or top-dose-only effect, or effect the other way, or a change in a side signal; the % refers to the signal ratio; also: potency is read from the fitted curve at half-maximal effect; as to activation: top concentration of the series differs between compounds); conditions: ME-180 (cervical carcinoma) HRE-bla reporter, beta-lactamase ratio, CoCl2, 17 h; activation: hits give high values
# Procedure, shortened: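 qHTS titration; ME-180 HRE-bla cells; EC50 CoCl2 co-treatment, 17 h at 37 degrees Celsius; CCF4 dye, ex 405nm, em 460nm and 530nm; %Activity from ratio; AC50.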
# Tags tell the direction and shape of the fitted curve or compound fluorescence and quenching.
smiles,measurement,setting,value
CCCCO,Potency,[1],inactive
same,Potency,[2],"inconclusive: 0.0063 µM [rising, full curve, poor fit]"
Cc1c(F)c(N2CCNC(C)C2)cc2c1c(=O)c(C(=O)O)cn2C1CC1 (configuration not stated),Potency,[3],inactive
Cc1ccccc1OCC(O)CO (configuration not stated),Potency,[4],inactive
Cc1c(C)c2c(c(C)c1O)CC[C@@](C)(CCC[C@H](C)CCC[C@H](C)CCCC(C)C)O2,Potency,[5],inactive
CCC(NC(C)C)C(O)c1ccc(O)c(O)c1 (configuration not stated),Potency,[6],inactive
same,Potency,[7],inactive
same,Potency,[8],"inconclusive: 50.1 µM [inhibitor, partial curve, poor fit]"
CC(C)C(=O)c1c(C(C)C)nn2ccccc12,Potency,[9],"inconclusive: 7.08 µM [inhibitor, partial curve, poor fit]"
same,Potency,[10],"inconclusive: 7.94 µM [inhibitor, partial curve]"
same,Potency,[11],"inconclusive: 29.1 µM [inhibitor, single point]"
same,Potency,[7],inactive
same,Potency,[4],inactive
C1CCc2nnnn2CC1,"ratio change, both ways",[12],inactive: -14.1%
same,Potency,[13],inactive
same,Potency,[11],inactive
CN=C(NC#N)NCCSCc1nc[nH]c1C,Potency,[10],inactive
CC[C@H]1OC(=O)[C@H](C)[C@@H](O[C@H]2C[C@@](C)(OC)[C@@H](O)[C@H](C)O2)C(C)[C@@H](O[C@@H]2O[C@H](C)C[C@H](N(C)C)[C@@H]2O)[C@](C)(OC)C[C@@H](C)C(=O)[C@H](C)[C@@H](O)[C@]1(C)O (some centres not stated),Potency,FAB9,"inconclusive: 12.6 µM [inhibitor, single point]"
CN(C)C(=O)Oc1ccc[n+](C)c1,Potency,[14],inactive
same,Potency,[15],inactive
same,Potency,[16],inactive
Cc1cc(NC(=O)C2=C(O)c3ccccc3S(=O)(=O)N2C)no1,Potency,[3],inactive
NCCCC(=O)O,Potency,[17],inactive
same,Potency,[6],inactive
Oc1cccc(O)c1O,Potency,[18],inconclusive: 63.9 µM [partial curve]
same,"activity change, negative = cytotoxicity",[1],inconclusive: -31.2%
same,Potency,[2],inactive
O=C(NCCNCC(O)COc1ccc(O)cc1)N1CCOCC1 (configuration not stated),"ratio change, both ways",[12],inactive: 5.56%
CNC(=O)[C@H](Cc1c[nH]c2ccccc12)NC(=O)[C@@H](CC(=O)NO)CC(C)C,Potency,FAB9,"inconclusive: 11.2 µM [inhibitor, single point]"
O=C(O)CO.[NH2-].[NH2-].[Pt+2],Potency,[16],inactive
COC(=O)C1=C(C#N)NC(C)=C(C(=O)OC(C)C)C1c1cccc([N+](=O)[O-])c1 (configuration not stated),Potency,FAB9,"inconclusive: 12.6 µM [inhibitor, single point]"
Oc1ccccc1,Potency,[16],inactive
C=Cc1ccccc1,Potency,[14],inactive
CCN(CC)CCNC(=O)c1ccc(NS(C)(=O)=O)cc1,Potency,[13],inactive
same,Potency,[8],inactive
COc1cc(S(C)=O)ccc1-c1nc2ncccc2[nH]1 (configuration not stated),activation,[19],inconclusive: -14.4%
COC(C)=O,Potency,[18],inactive: > 92 µM
COc1ccc(CCNC[C@H](O)c2ccc(O)cc2)cc1OC,Potency,[17],"inconclusive: 0.178 µM [inhibitor, full curve, poor fit]"
same,Potency,[19],"inconclusive: 2.51 µM [inhibitor, full curve]"
OC[C@H]1O[C@@H]2O[C@H]3[C@H](O)[C@@H](O)[C@@H](O[C@H]4[C@H](O)[C@@H](O)[C@@H](O[C@H]5[C@H](O)[C@@H](O)[C@@H](O[C@H]6[C@H](O)[C@@H](O)[C@@H](O[C@H]7[C@H](O)[C@@H](O)[C@@H](O[C@H]1[C@H](O)[C@H]2O)O[C@@H]7CO)O[C@@H]6CO)O[C@@H]5CO)O[C@@H]4CO)O[C@@H]3CO,Potency,[14],inactive
Cc1cc(C)c(NC(=O)C[C@H](CC(=O)O)c2cccc3ccccc23)c(C(=O)N2CCC3(CCCC3)CC2)c1,Potency,[17],"inconclusive: 12.6 µM [fluorescent, side channel, single point]"
same,Potency,[19],"inconclusive: 20 µM [inhibitor, partial curve, poor fit]"
same,Potency,[15],"inconclusive: 10 µM [inhibitor, partial curve]"
CC/C=C\C/C=C\C/C=C\C/C=C\C/C=C\C/C=C\CCC(=O)O,Potency,[5],"inconclusive: 3.16 µM [inhibitor, full curve]"
O=C1CCC(c2ccc(-n3ccnc3)cc2)=NN1,Potency,[15],inactive
CCOC(C)=O,Potency,[18],inactive: > 92 µM
O=c1[nH]c(=O)n([C@H]2C[C@H](O)[C@@H](CO)O2)cc1/C=C/Br,Potency,[9],inactive
